# Experimental data reported in PMC12136788.
# Some of the results follow.
# B1: chr2:227556236:227556337:+|3pUTR|ENSG00000173744|msi1|total|mutant (ssRNA)
# RNA: GGGAGUUCUACAGUCCGACGAUCUGUUGAAUGCCUUUUUGCAAUGAUGACUGAGUUGUUAUCACCGUAUUUUAAAACCUGUACCGUGUUUCCGACUUGUUAAAACAUUGCUGUCCCGUGUACAUCCCGCUAAAAGUGUGGUUUCAACAGAGGAUUGAGCAUCA
# B2: chr1:202726062:202726163:-|3pUTR|ENSG00000117139|unk|FALSE|unique (ssRNA)
# RNA: GGGAGUUCUACAGUCCGACGAUCGAAAUGCACCUGAUUUGCCAUUAUACCCACCAUCAAAAGCAACAUGGCCCUUUGGGUAUUAGUGCAAGAUUAGCCUAAGAAUAGAGUAGAUCUCUACCUGGAAGAGGGUGAAACAUGGCUCAACAGAGGAUUGAGCAUCA
# B3: ENSG00000107863:be:win_4151|CDS|ENSG00000107863|bound_else_gene|NA|bound_elsewhere_windowed (ssRNA)
# RNA: GGGAGUUCUACAGUCCGACGAUCAUUCAGCUACUAGUGACUCAACAAAAUCUAAGGGUUCUUGGGGAUCUGGAAAGGAUCAGUAUAGCAGGGAACUGCUUGUGUCCUCCAUCUUUGCAGCUGCUAGUCGCAAGAGGAAGAAGCCAACAGAGGAUUGAGCAUCA
# B4: chr5:171862525:171862626:-|3pUTR|ENSG00000072803|msi1|FALSE|unique (ssRNA)
# RNA: GGGAGUUCUACAGUCCGACGAUCGACAGUGCAUGGAAAGGACGUUGGCAUCCAAUUGGCACUCCUUCUCCCUUAUUCAAUAUUAGGUUUGAUUUGCCCUUCGCCAUUGUUUCCAAAGAUCAAGGAAUGUCAAUAACAUUUUAACAACAGAGGAUUGAGCAUCA
# B5: chr5:133074000:133074114:+|CDS|ENSG00000170606|unk|total|mutant (ssRNA)
# RNA: GGGAGUUCUACAGUCCGACGAUCUCUUGCAUAUGGAAUCUAUAAGCAGGAUCUUCCUGCCUCCGAAGAGAAACCAAGAAAUGCCGUUUUUGCCGACAUGGGCCACUCUGCUUAUCAAGUUUCUGUAUGUGCAUUUAACCGAGGCAACAGAGGAUUGAGCAUCA
# B6: ENSG00000029725:stop:overlap|stop_codon|ENSG00000029725|stop_codon|NA|stop_codon (ssRNA)
# RNA: GGGAGUUCUACAGUCCGACGAUCAAAAUGAAAUGAAAAAGGAUCCCAUCCAGGAUACCAUAUUGCAUUUAGUUGUGUCUCCUUAGAUGCCUCUUGGCUGUGACAGUUUCUCAGAUUUUUCUUGUUUUUAAUGACCUUUCUGUCCAACAGAGGAUUGAGCAUCA
# B7: chr12:54238554:54238587:-|3pUTR|ENSG00000094916|msi1_unk|FALSE|overlapping (ssRNA)
# RNA: GGGAGUUCUACAGUCCGACGAUCGGGAGCACCCAUUUUAAACCUGGAGAGAACCAUGAUGUUUUCUUCUUCAAAUAACAAUCUAGUUUUUUUUCCCCCAGUACUAAAAUUGUAUUGUCUUUCAGACAAUAUAAUUUUUAUUUACAACAGAGGAUUGAGCAUCA
# B8: ENSG00000198589:be:win_5401|CDS|ENSG00000198589|bound_else_gene|NA|bound_elsewhere_windowed (ssRNA)
# RNA: GGGAGUUCUACAGUCCGACGAUCGAACACGCUUUGGAAAAGGCAGCUCCUCUCCUUCGUGAGAUUUUUGUGGAUUUUGCACCUUUUCUUUCUCGGACACUUUUGGGUAGCCAUGGACAAGAACUGCUUAUAGAAGGAACAAGUCAACAGAGGAUUGAGCAUCA
# B9: chr19:36514967:36515079:-|CDS|ENSG00000254004|unk|total|mutant (ssRNA)
# RNA: GGGAGUUCUACAGUCCGACGAUCCAUGAAUGCACUGAAUGUGGUAAAGUGUGCUCUCGAGUCUCAUCUCUUACUCUACACCUCCGAAGUCACACAGGAAAGAAGGCAUAUAAAUGUAAUAAAUGUGGAAAAGCCUUCAGCCAGCAACAGAGGAUUGAGCAUCA
# B10: chr2:112756978:112757080:-|CDS|ENSG00000169607|unk|total|mutant (ssRNA)
# RNA: GGGAGUUCUACAGUCCGACGAUCCUUCUGGGCAAAAGGCUGACUUCAGAAUGUGUUUCUUCUAACCCAUACUCUAAGCCUUCCCGCAAGAGUUUUCAACAGUGUGAAGCUGGAUCGUCCACAACAGGAGAACUGUCAAGAAAACAACAGAGGAUUGAGCAUCA
# B11: ENSG00000139921:stop:overlap|stop_codon|ENSG00000139921|stop_codon|NA|stop_codon (ssRNA)
# RNA: GGGAGUUCUACAGUCCGACGAUCUUCCACAGAAUGCCAUAAGACAACGCUCUCUGGGUCCAUCAUUGGCCACAGAUAAAUCCUAGUUAAAUUUUAUAGUUAUCUUAAUAUUAUGAUUUUGAUAAAAACAGAAGAUUGAUCAUUCAACAGAGGAUUGAGCAUCA
# B12: chr6:149410404:149410522:+|3pUTR|ENSG00000055208|unk|FALSE|bound_elsewhere (ssRNA)
# RNA: GGGAGUUCUACAGUCCGACGAUCUUAUAUUUCUAUAUGUAUAGUGUAAUAGCCUUUUGUUAACUAAUUUUCUUUUUUCCUUUUAGUAAUUAAGCACGAUCAUGUCCCUUUUUAAGCCUUACCUGAGAGGAACAAUGCCUUAAACAACAGAGGAUUGAGCAUCA
# B13: chr8:103332422:103332528:+|3pUTR|ENSG00000164930|msi1|total|mutant (ssRNA)
# RNA: GGGAGUUCUACAGUCCGACGAUCUUUUUUAACAUUCCGAAUAUUACAUUUUGUAUUAUACAGUACCUUUCUCAGACAUUUUGCCGAAUUCAUUUCGGCAGCUCACCCGGAUUUUGCUGAACAUUAAAAAGUGUGACCGCGAUACAACAGAGGAUUGAGCAUCA
# B14: chr11:20048915:20049016:+|CDS|ENSG00000166833|unk|total|mutant (ssRNA)
# RNA: GGGAGUUCUACAGUCCGACGAUCGAGCAGUGGGAGCAGCAGUCCUCUCUACAGCAAGAAUGUGGACCUCAACCAGUCUCCGCCCGCCUCCAGCCCCAGCUCAGCCCACUCGGCCCCUUCCAACAGCCUCACCUGGGGCACCAACAACAGAGGAUUGAGCAUCA
# B15: chr11:75562225:75562326:+|5pUTR|ENSG00000149257|msi1|FALSE|unique (ssRNA)
# RNA: GGGAGUUCUACAGUCCGACGAUCGCAGGAGGGGGUGGGGACUGCCAUAUAUAGAUCCCGGGAGCAGGGGAGCGGGCUAAGAGUAGAAUCGUGUCGCGGCUCGAGAGCGAGAGUCACGUCCCGGCGCUAGCCCAGCCCGACCCACAACAGAGGAUUGAGCAUCA
# B16: chr12:66123492:66123593:-|3pUTR|ENSG00000139233|msi1|total|mutant (ssRNA)
# RNA: GGGAGUUCUACAGUCCGACGAUCAUGCUACCCAAUAUCCAGUUAUAAUCAGGCCUCAACGUUCUGUCAGGUAUUAAUAUGGUCCGAAUUGUUCUUACAACUGGUAAUUACCGUCAACCGAGAUAAAACAGAUGAUGUACUGACCAACAGAGGAUUGAGCAUCA
# B17: chr10:30336814:30336915:-|CDS|ENSG00000107951|unk|total|mutant (ssRNA)
# RNA: GGGAGUUCUACAGUCCGACGAUCGUAUUUUCCAGACUGCACCGUCAGACCCUUUGGCUCCUCAGUCAACACUUUUGGGAAGUCCGGAUGUGAUUUGGACAUGUUUUUGGAUCCCGAUGAAACCAGAAACCUCAGCGCUCACAACAACAGAGGAUUGAGCAUCA
# B18: ENSG00000135454:stop:overlap|stop_codon|ENSG00000135454|stop_codon|NA|stop_codon (ssRNA)
# RNA: GGGAGUUCUACAGUCCGACGAUCAGCGCGUUAGUGGCCCCUACGUGGAACACUAUCUCAUGCCCUUCGGCAAGGUGUGCAGCUAGCAGGCUGAACGGCAGGCCAGAGGACUCCCGCAGGGGGUGUGCCCUCAAUCUGCAGCCUCAACAGAGGAUUGAGCAUCA
# B19: chr7:113918214:113918996:-|CDS|ENSG00000154415|control|control|control (ssRNA)
# RNA: GGGAGUUCUACAGUCCGACGAUCUGAGAAGUUAGUAUAUGUAAGAAUGUCUUUAGAUGACUGGCAGACACAUUAUGACAUUUUAGCAGAAUAUGUUCCUAAUUCAUGUGAUGGUGAAACUGACCAGUUCUCCUUUAAGAUUGUCAACAGAGGAUUGAGCAUCA
# B20: chr5:119149357:119149458:+|CDS|ENSG00000172869|msi1|total|mutant (ssRNA)
# RNA: GGGAGUUCUACAGUCCGACGAUCCUGGGAGAGUACCAAAGUUGUGCCCCUUUCUAAAUUUGUACUAUUACGAAGUGUGGACCCCGUUUCUUCUGCCGAUGGCUCCCCACCUUUUCCUGUUUCUUUAUCGUGGGUCCGGGAUGGCAACAGAGGAUUGAGCAUCA
# B21: chr16:33844783:33845086:-|CDS|ENSG00000259680|control|control|control (ssRNA)
# RNA: GGGAGUUCUACAGUCCGACGAUCAGCUGGGUCCGCCAGGCUCCAGGGAAGGGACUGGAGUGGAUUUCAUACAUUAGUGGUGAUAGUGGUUACACAAACUACGCAGACUCUGUGAAGGGCCGAUUCACCAUCUCCAGGGACAACCAACAGAGGAUUGAGCAUCA
# B22: chr9:21239001:21239365:-|three_prime_utr|ENSG00000228083|control|control|control (ssRNA)
# RNA: GGGAGUUCUACAGUCCGACGAUCCAAAAUUUUCAAAUGUUUUCAGGAGUGUAAAGAAGCAUCAUGUAUACCUGUGCAGGCACUAGUCCUUUACAGAUGACCAUGCUGAUGUCUCCUUUCAUCUAUUUAUUUAAAUAUUUAUUUCAACAGAGGAUUGAGCAUCA
# Molecular target: MSI1 full-length (mouse, UniProt Q61474 1-362)
# UniProt Q61474, sequence (Q61474 whole entry): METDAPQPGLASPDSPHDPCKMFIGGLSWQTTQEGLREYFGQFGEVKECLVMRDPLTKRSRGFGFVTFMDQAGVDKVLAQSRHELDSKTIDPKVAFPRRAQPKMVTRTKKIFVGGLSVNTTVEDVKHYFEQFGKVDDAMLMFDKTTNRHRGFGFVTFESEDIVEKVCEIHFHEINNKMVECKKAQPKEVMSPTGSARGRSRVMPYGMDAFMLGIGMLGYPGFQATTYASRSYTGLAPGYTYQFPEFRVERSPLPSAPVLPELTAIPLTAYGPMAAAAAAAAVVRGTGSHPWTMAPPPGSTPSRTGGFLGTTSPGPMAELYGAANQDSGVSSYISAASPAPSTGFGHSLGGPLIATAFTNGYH
# Assay: nsRBNS (natural sequence RNA bind-n-seq); RBNS binding buffer (assumed for nsRBNS): 25 mM Tris pH 7.5, 150 mM KCl, 3 mM MgCl2, 0.01% Triton X-100, 500 ug/ml BSA, 20 U/ml SUPERase-In, 4 C; UNK is unkempt and MSI1 is Musashi-1; names of the RNAs are library labels; protein concentration not given here; high values mean tight binding
row,Binder,binding signal [enrichment R]
1,B1,0.214
2,B2,1.06
3,B3,0.389
4,B4,0.699
5,B5,0.25
6,B6,0.571
7,B7,2.06
8,B8,0.464
9,B9,0.408
10,B10,0.501
11,B11,0.597
12,B12,30.1
13,B13,0.818
14,B14,0.595
15,B15,0.866
16,B16,0.303
17,B17,0.393
18,B18,4.38
19,B19,2.24
20,B20,0.624
21,B21,0.455
22,B22,0.493
